Measurements as given in PubChem BioAssay (NCATS).
This list was built around the results that the source calls inconclusive (neither active nor inactive); the mix of calls is not that of the screen. For some of these results: Potencies beside an inconclusive call are fits to weak or partial responses and may not hold up. Calls of active or inactive are those of the source. Calls come from the whole dose curve; as a rule, active = well fitted curve in the direction sought with a large enough effect; inconclusive = small, poorly fitted or top-dose-only effect, or another doubt; inactive = no such curve, though single readings can be large; an effect the other way counts as inactive or inconclusive. Peptide text beside a SMILES is read from it. * marks the point of attachment. Octanoyl = CCCCCCCC(=O)*

Columns and labels:
[1] = system: Zika virus NS2B-NS3 protease (linked construct); assay: Primary screen NINDS Rhodamine qHTS for Zika virus inhibitors (AID 1347160); note: nearly all actives have a fitted effect of over 55% in size; note: potency is the fitted concentration of half-maximal effect; for activity change, negative = inhibition: % is set by controls: 0 for no effect and ±100 for the full control effect
Summary of the method: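 Single-chain NS2B-NS3 protease, 25 nM, pH 8.0; compounds preincubated 15 min. Activity: Rhodamine110 release from 1.5 microM substrate over 15 min, room temperature, data fitted to 4-parameter Hill.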

[2] = KB-3-1 Cancer Cell Toxicity qHTS against the NCATS CANVASS Library (AID 1347366); note: nearly all actives have a fitted effect of over 75% in size
Summary of the method: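 Seed KB-3-1 cells at 500/well in DMEM with 10% FBS, add compounds, incubate 72 hr at 37C and 5% CO2, then add CellTiter-Glo and read luminescence after 10 minutes.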

[3] = G06 Cancer Cell Toxicity qHTS against the NCATS CANVASS Library (AID 1347368); note: nearly all actives have a fitted effect of over 60% in size
Summary of the method: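 ATP luminescence (CellTiterGlo) readout of cytotoxicity. Canine G06 glioma cells, 500/well, 72 hr incubation at 37C with compounds; bortezomib titration served as control.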

[4] = COV-362 Cancer Cell Toxicity qHTS against the NCATS CANVASS Library (AID 1347352); note: % is set by controls: 0 for no effect and ±100 for the full control effect
Summary of the method: (§1)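 1000 cells/well, 4 h pre-incubation 37 °C/5% CO2; 11-pnt titration; 72 h; CellTiter-Glo 15 min RT, luminescence.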

[5] = UWB1.289-WTBRCA1 Cancer Cell Toxicity qHTS against the NCATS CANVASS Library (AID 1347354); note: potency is the fitted concentration of half-maximal effect
Summary of the method: as §1

[6] = qHTS for Hypoxia signaling pathway (HIF-1) antagonists against the NCATS CANVASS Library (AID 1347374); note: nearly all actives have a fitted effect of over 60% in size; note: potency is the fitted concentration of half-maximal effect;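 for activity change, negative = inhibition: HRE-bla ME-180 cells stimulated with cobalt chloride to stabilize HIF-1alpha; % is set by controls: 0 for no effect and ±100 for the full control effect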
Summary of the method: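 Beta-lactamase reporter under HRE control in ME-180 cells; CoCl2 stimulus (60 uM solution as added), compounds 11-pt qHTS, 17 h 37C. CCF4 dye 2 h RT, 460/530 nm emission. CellTiter-Glo viability in same wells.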

[7] = Inflammasome Signaling qHTS Counterscreen: IL-1-beta AlphaLISA counterscreen against the NCATS CANVASS Library (AID 1347381);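 note: cell-free check with purified IL-1β in medium and no THP-1 cells; 0% is about no effect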
Summary of the method: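 Here, no cellular stimulation occurs; compounds in an 11-point series meet 4 pg purified IL-1-beta directly. Bead-based AlphaLISA detection follows (1 h acceptor/antibody, then 30 min donor, dark, room temperature), with excitation at 680 nm.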

[8] = qHTS for Activators of p53 Stress Response Pathway screened against the NCATS CANVASS Library (AID 1347388); note: potency is the fitted concentration of half-maximal effect
Summary of the method: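 Beta-lactamase reporter driven by p53 response elements in HCT-116 cells, read as the 460 nm/530 nm emission ratio after CCF4 loading, following 16 h of exposure to an 11-point series. Cell viability was measured in the same wells by CellTiter-Glo luminescence.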

[9] = qHTS for Inflammasome Signaling Inhibitors: IL-1-beta AlphaLISA screen against the NCATS CANVASS Library (AID 1347379);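 note: human THP-1 cells primed with LPS then triggered with ATP; secreted IL-1B measured as AlphaLISA emission at 615 nm; % is set by controls: 0 for no effect and ±100 for the full control effect; lower signal means less IL-1B release which is the wanted effect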
Summary of the method: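 THP-1, 1 hr compound pre-incubation, then LPS 250 ng/mL + ATP 1.25 mM (final); 16 hr total with compound; IL-1B AlphaLISA, ex 680/em 615 nm; 11-point qHTS, up to 57.5 uM final.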

[10] = qHTS for Antimalaria activity screened against the NCATS CANVASS Library (AID 1347380); note: potency is the fitted concentration of half-maximal effect; nearly all actives have a fitted effect of over 40% in size
Summary of the method: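 SYBR Green fluorescence (ex 485, em 535 nm) read after saponin/Triton lysis and 18 h further incubation; Dd2 asexual blood-stage parasites, 72 h compound exposure, 11-pt concentration series, 2.5% hematocrit, 0.3% parasitemia.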

[11] = Cytotoxicity qHTS for assessment of Hepg2 cells membrane integrity screened against the NCATS CANVASS Library (AID 1347387); note: potency is the fitted concentration of half-maximal effect
Summary of the method: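 LDH release read by fluorescence (560 nm ex/590 nm em) after CytoTox-ONE addition and 10 min RT; signal tracks lysed cells. HepG2, 2000 cells/well, plated overnight; compound 5 hr, 37C, 5% CO2, final 0.59 nM - 46 uM, 11 points.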

[12] = Primary qHTS for inhibitors of nuclear receptor binding SET domain protein 2 (NSD2) in an isogenic RCH-ACV NSD2 p.E1099K mutant (9B) (AID 1645876); note: % is set by controls: 0 for no effect and ±100 for the full control effect; nearly all actives have a fitted effect of over 70% in size
[13] = Primary fluorescence-based thiol-reactive (MSTI) qHTS assay for identification of artifact compounds. (AID 1845221);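 note: potency is the fitted concentration of half-maximal effect; thiol-reactive compounds lower the probe fluorescence signal; nearly all actives have a fitted effect of over 65% in size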
Summary of the method: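 In PBS pH 7.4 with 2% DMSO, each compound met 4 uM MSTI for one hour at ambient temperature, shielded from light, before fluorescence detection.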

[14] = Panc-1005 Cancer Cell Toxicity qHTS against the NCATS CANVASS Library (AID 1347349); note: potency is the fitted concentration of half-maximal effect; nearly all actives have a fitted effect of over 60% in size
Summary of the method: (§2)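 Following a 4 h pre-incubation of 1000 seeded cells, compounds were pinned in an 11-pnt dilution series and left for 72 h; viability then came from CellTiter-Glo.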

[15] = U-118MG Cancer Cell Toxicity qHTS against the NCATS CANVASS Library (AID 1347351); note: potency is the fitted concentration of half-maximal effect
Summary of the method: as §2

[16] = A2780 Cisplatin Sensitive Ovarian Cancer Cell Toxicity qHTS against the NCATS CANVASS Library (AID 1347353); note: potency is the fitted concentration of half-maximal effect; nearly all actives have a fitted effect of over 60% in size
Summary of the method: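 750 cells/well, 4 h settle; 11-pt cpd titration; 72 h, 37 °C, 5% CO2; ATPLite 10 min RT; luminescence read.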

[17] = HEK-293 Cancer Cell Toxicity qHTS against the NCATS CANVASS Library (AID 1347355); note: potency is the fitted concentration of half-maximal effect; nearly all actives have a fitted effect of over 65% in size
Summary of the method: as §1

[18] = system: NAD(P)H diaphorase (Clostridium kluyveri); assay: Diaphorse counterscreen qHTS: Assay Interference Panel against the NCATS CANVASS Library (AID 1347362); note: potency is the fitted concentration of half-maximal effect
Summary of the method: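 Counterscreen for coupling-enzyme interference: resorufin fluorescence from resazurin/NADH turnover, read after 5 min at room temperature. Compounds were tested over an 11-point series after 15 min dark preincubation with diaphorase in PBS-Tween.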

[19] = KB-8-5-11 Cancer Cell Toxicity qHTS against the NCATS CANVASS Library (AID 1347364); details: activity change, negative = toxicity: at 46.1 µM (top of the series); note: potency is the fitted concentration of half-maximal effect; nearly all actives have a fitted effect of over 75% in size
Summary of the method: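 CellTiter-Glo luminescence after 72 h exposure; 500 KB-8-5-11 cells/well, DMEM/10% FBS, 37C, 5% CO2; compounds in 11-pt qHTS. Follow-up confirmation included medium with 1uM tariquidar.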

[20] = qHTS for Hypoxia signaling pathway (HIF-1) agonists against the NCATS CANVASS Library (AID 1347375); note: potency is the fitted concentration of half-maximal effect
Summary of the method: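 Read-out: beta-lactamase FRET (CCF4-AM, ex 405, em 460 and 530 nm) after 2 h at room temperature. ME-180 cells stably carrying HRE-bla were treated 17 h at 37C with compounds in an 11-point concentration series.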

[21] = DH5-alpha competent E. coli microbial cell viability qHTS against the NCATS CANVASS Library (AID 1347377); details: viability signal change, negative = cytotoxic: at 46.1 µM (top of the series); note: 0% is about no effect
Summary of the method: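 Luminescent ATP read-out (BacTiter-Glo, 20 min RT) after overnight 37C culture of DH5-alpha E. coli with compounds; daunomycin control at 0.2 nM–9.2 uM final.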

[22] = qHTS for H2AX Agonists against the NCATS CANVASS Library (AID 1347378);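 note: phospho-H2AX S139 level in CHO-K1 lysates by TR-FRET emission ratio; potency is the fitted concentration of half-maximal effect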
Summary of the method: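 Following overnight seeding, CHO-K1 cells are incubated with a concentration series of compound for 3 hr at 37C (final DMSO 0.76%). Cells are then lysed, detection antibodies added, and emission ratio 665/620 nm recorded after 24 hr at room temperature.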

[23] = qHTS for activators of dead-cell proteases activity screened against the NCATS CANVASS Library (AID 1347392);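 note: luminescence from protease leaking out of membrane-damaged cells cleaving impermeant substrate; potency is the fitted concentration of half-maximal effect; rising signal means more cytotoxicity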
Summary of the method: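 Luminescent dead-cell protease readout (AAF-aminoluciferin, 15 min, room temperature) after 5 h compound treatment of HepG2 cells (2000/well, pre-attached 18 h). Eleven concentrations.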

[24] = qHTS for inhibitors of ER calcium dysfunction: SERCaMP assay screened against the NCATS CANVASS Library (AID 1347393); details: SH-SY5Y GLuc-SERCaMP (Gaussia luciferase released on ER calcium loss) secretion, thapsigargin, luminescence; activity change, negative = inhibition: at 76.6 µM (top of the series) unless noted; note: potency is the fitted concentration of half-maximal effect; nearly all actives have a fitted effect of over 40% in size
Summary of the method: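 Thapsigargin-induced ER calcium depletion drives GLuc-SERCaMP secretion from SH-SY5Y cells; compounds given 16 h beforehand were scored by lowered coelenterazine luminescence after 4 h challenge.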

[25] = Vero-766 cells viability qHTS against the NCATS CANVASS Library: Counterscreen for Zika virus inhibition assay (AID 1347394); details: Vero 766 viability, CellTiter-Glo luminescence, 72 h; activity change, negative = cytotoxic: at 46.1 µM (top of the series)
Summary of the method: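 This cytotoxicity counterscreen uses African green monkey Vero 766 cells in the absence of Zika virus. Compounds are incubated with cells for 72 h, and ATP-based luminescence reports viability.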

[26] = qHTS for inhibitors of Wild type Zika virus screened against the NCATS CANVASS Library (AID 1347396); note: potency is the fitted concentration of half-maximal effect
Summary of the method: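 Using ATP-based luminescence (CellTiter Glo), this screen scores rescue of Vero 766 cells from wild-type Zika killing at 72 h post-infection. Compounds are tested in a concentration series.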

[27] = qHTS to identify inhibitors of the type 1 interferon - major histocompatibility complex class I in skeletal muscle: primary screen against the NCATS Mechanism Interrogation Plate v5.0 (MIPE) Libary (AID 1347411); details: iHSKM cells + IFN-b, HiBiT-tagged MHC-I luminescence, 24 h; activity change, negative = inhibition: at 45.8 µM (top of the series);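 note: plate controls were vehicle for no effect and reference inhibitor for full effect; nearly all actives have a fitted effect of over 65% in size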
Summary of the method: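 HLA-B HiBit myoblasts, dexamethasone-free medium + 4 ng/ml IFN-b, 24 h compound, 11-pt 1:3 from 46 uM final. Readout: Nano-Glo HiBiT lytic luminescence after 10 min lysis, RT.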
Tags give direction and shape of the fitted curve.

CCCCCCCC(=O)N[C@@H](CC(C)C)C(=O)N[C@H](C=O)CCC(=O)O (Octanoyl-Leu-Glu-aldehyde)
inactive: Potency [2] | Potency [3]
active: Potency [1] 39.2 µM

O=Cc1ccc2n1C[C@]1(C[C@H](O)[C@@H](CO)O1)OC2
inconclusive: Potency [1] 87.7 µM [inhibitor, single point]
inactive: Potency [4] | Potency [5] | Potency [6] | Potency [7] | Potency [8]

CC(CCC[C@]1(C)C(=O)C=C[C@@]23C[C@]4(C)O[C@@H](C[C@@H]4[C@H]2O)C31)C(=O)O (some centres not stated)
inactive: Potency [9] | Potency [11]
inconclusive: Potency [1] 55.3 µM [inhibitor, partial curve, poor fit] | Potency [10] 0.8 nM [cytotoxic]

CC1[C@@H](O)[C@@H](O)C2[C@]3(C)C(C[C@H]4OC(=O)[C@H](O)[C@]1(O)[C@@]24C)C(C)(O)C[C@H](O)[C@H]3O (some centres not stated)
inactive: Potency [1] | Potency [12]
inconclusive: Potency [13] 7.33 µM [inhibitor, partial curve]

CC1(C)CC[C@]2(C(=O)O)CC[C@]3(C)C(=CC[C@@H]4[C@@]5(C)C[C@@H](O)[C@H](O)C(C)(C)[C@@H]5CC[C@]43C)[C@@H]2C1
inactive: Potency [4] | Potency [21]
active: Potency [1] 19.6 µM
inconclusive: Potency [14] 11.9 µM [cytotoxic, partial curve] | Potency [15] 26.6 µM [cytotoxic, single point] | Potency [16] 37.2 µM [cytotoxic, single point] | Potency [5] 29.8 µM [cytotoxic, partial curve, poor fit] | Potency [17] 18.7 µM [cytotoxic, partial curve, poor fit] | Potency [18] 13.6 µM [inhibitor, partial curve] | Potency [19] 18.7 µM [cytotoxic, partial curve] | Potency [6] 29.8 µM [inhibitor, single point] | Potency [20] 29.8 µM [activator, partial curve, poor fit] | Potency [22] 54.5 µM [activator, partial curve, poor fit] | Potency [10] 5.3 nM [cytotoxic, full curve, poor fit] | Potency [11] 33.1 µM [rising, partial curve, poor fit] | Potency [8] 33.1 µM [activator, partial curve, poor fit] | Potency [23] 29.5 µM [activator, single point] | Potency [24] 13.6 µM [inhibitor, partial curve] | Potency [25] 33.1 µM [cytotoxic, single point] | Potency [26] 16.5 µM [inhibitor, partial curve, poor fit] | activity change, negative = inhibition [27] -31.1% [inhibitor]
